Data taken from PubChem BioAssay AID485313 (National Center for Advancing Translational Sciences (NCATS), 2010).
The whole screen tested about 320,000 compounds, of which about 7,600 (2.4%) were called active. The shares of active, inactive and inconclusive entries below differ from those in the screen. The call rests on the fitted dose curve; in most records, active means well fitted activation curve with a large enough effect; inconclusive means small, poorly fitted or top-dose-only effect; inactive means no such curve, though single readings can be large or run the other way. Potencies beside an inconclusive call are fits to weak or partial responses and may not hold up.

Assay: qHTS Assay for NPC1 Promoter Activators; further: nearly all actives have a fitted effect of over 60% in size;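 on activation: reporter is driven by a mutant NPC1 promoter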
Settings: Huh7 NPC1 promoter luciferase reporter, 24 h; series mostly up to 9.22 µM
Procedure, shortened: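 Huh7 reporter cells (NPC1 promoter driving luciferase) are dosed with compound for 24 h at 37 °C, 5% CO2; luciferase detection reagent is then added and luminescence measured after 10 min at ambient temperature.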
Potency means the concentration at half of the fitted maximal effect; tags describe the fitted curve by direction and shape.

Potency, active:
COc1ccc(-c2cc3ccccc3[nH]2)cc1 3.55 µM
CC(=Nc1ccc(Br)cc1)c1sc2ccccc2c1O 3.16 µM
O=[N+]([O-])c1ccc(CSc2nc3ccccc3o2)cc1 0.631 µM
Cc1ccc(OC(=O)c2ccc(S(=O)(=O)N(C)C)cc2)c(-n2nc3ccccc3n2)c1 3.98 µM
O=C(Nc1cccc(C(=O)O)c1)Nc1ccccc1Cl 0.501 µM
Cc1cc(N2CCCCC2)n2ncc(-c3ccccc3)c2n1 0.447 µM
Cc1ccc(Cn2ccnc2C(=O)Nc2ccccc2)cc1 3.98 µM
CN(C)c1ccc(NC(=O)c2cccc(N3C(=O)C4C5C=CC(C5)C4C3=O)c2)cc1 (centres undefined) 1.78 µM
COc1ccccc1CCCNC(=O)C1CCC(=O)N(Cc2ccccc2F)C1 (centres undefined) 2.82 µM
Cc1ccc(-c2c(C)sc(=NC(=O)c3ccco3)n2C)cc1 1.58 µM
Cc1ccc(NC(=S)Nc2cc(C)on2)cc1 1.41 µM
Cc1ccc(-c2nc3ccccc3n2C)o1 1.58 µM
Fc1ccccc1-c1nc(-c2ccc(Br)o2)no1 0.501 µM
O=C(c1cc(-c2ccc(Cl)cc2Cl)on1)N1CCCCCC1 0.708 µM
Cc1cccc(-n2ncc3c(N4CC(C)CC(C)C4)ncnc32)c1 (centres undefined) 2.24 µM
CCCc1cc(-c2ccc3c(c2)COc2c4ccccc4nn2-3)on1 2.82 µM

Potency, inactive:
CC(c1ccccc1)N(C)C(=O)CN1CCN(S(=O)(=O)c2ccc3c(c2)OCCCO3)CC1 (centres undefined)
CCOc1ccc(CN(C)C(=O)CNC(=O)C2CCCCC2)cc1OC
CNC(=O)Cn1nc(-c2ccc(C)c(S(=O)(=O)N(C)C)c2)c2ccccc2c1=O
COc1cccc(CNC(=O)c2ccccc2-c2ccccc2)c1
O=C(O)CCCN1C(=O)/C(=C/C=C/c2ccco2)SC1=S
Cc1ccc2nc(SCC(=O)c3cc(C)n(C)c3C)[nH]c2c1
Cc1cccc(-n2nnc3c(=O)n(CC(=O)Nc4cc(C)on4)cnc32)c1
COCCCNc1ncnc2c1[nH]c1ccccc12
Cc1nc2ccc(NC(=O)c3ccc([N+](=O)[O-])cc3)cc2s1
CC(C(=O)Nc1ccccc1)N(C)CCOc1ccccc1 (centres undefined)
COc1cccc(CNCCSc2nnnn2C)c1
O=C(COC(=O)c1cc(Br)ccc1O)Nc1ccc2c(c1)OCO2
Cc1ccc(Cl)cc1N1CCN(C(=O)CSc2nnc3n2C(C)(C)Cc2ccccc2-3)CC1
O=C(COC(=O)c1cccc([N+](=O)[O-])c1)Nc1ccc(Cl)cn1
COc1ccc(CNS(=O)(=O)c2ccc3c(c2)NC(=O)C(C)S3)cc1 (centres undefined)
O=C(Nc1nnc(-c2cccs2)o1)c1ccco1
COc1ccccc1CN(C(=O)c1cnccn1)C(C(=O)NC1CCCCC1)c1cc(OC)c(OC)c(OC)c1 (centres undefined)
CN(C)/C=C/C(=O)c1cccc([N+](=O)[O-])c1
COc1ccc(-c2ccc3c(N)c(C(=O)NC(C)C)sc3n2)cc1OC
CCC(=O)Nc1ccc2c(c1)ncn2C

Potency, inconclusive:
C/C=C/C(=O)N1CC2(CC(c3cccc(NC(=O)COc4ccc(Cl)cc4)c3)=NO2)C[C@@H]1C(N)=O (some centres undefined) 5.62 µM [activator, single point]
CS(=O)(=O)N1CCN(c2nc3ccccc3s2)CC1 1.78 µM [activator, partial curve]
Cc1c(C(=S)Nc2ccccc2)cnn1-c1ccccc1 5.62 µM [activator, single point]
COc1ccc2nc(SCC(C)=O)c(C#N)cc2c1 4.47 µM [activator, single point]
C=CCn1c(C)cc(C2=NNC(=NCc3ccccc3)SC2)c1C 3.55 µM [activator, partial curve]
COc1ccccc1NC(=O)CSc1nnc(-c2ccccc2)o1 3.98 µM [activator, single point]
O=C(NCc1ccco1)c1cc(-c2ccco2)on1 3.55 µM [activator, partial curve]
COc1ccc(NC(=O)c2ccco2)cc1N 6.31 µM [activator, partial curve]
COc1ccc2oc(C(=O)N3CCCc4ccccc43)c(C)c2c1 5.62 µM [activator, single point]
CCOc1ccc(NC(=O)c2ccc(CC)s2)c([N+](=O)[O-])c1 2.82 µM [activator, partial curve]
Clc1ccc2c(c1)C1OCCC1C(c1ccco1)N2 (centres undefined) 3.55 µM [activator, partial curve]
CC(=O)NCCc1nc2cc(NC(=O)c3cccs3)ccc2n1C 3.16 µM [activator, partial curve]
Cc1ccc(-c2csc(NC(=O)c3ccccc3F)c2C(=O)O)cc1 5.01 µM [activator, single point]
O=C(NCc1cccs1)Nc1ccc2c(c1)OCO2 2.82 µM [activator, partial curve]
N#CC1CC(c2ccccc2)=NN1c1ccccc1[N+](=O)[O-] (centres undefined) 3.16 µM [activator, single point]
COc1ccccc1C(=O)NC(=O)Nc1cccc(Cl)c1 3.16 µM [activator, single point]
O=C1CCN(Cc2ccccc2)CCN1CCOc1ccccc1 3.55 µM [activator, single point]
Cc1sc(NC(=O)C2=COCCO2)c(C#N)c1C 3.16 µM [activator, single point]
CCOC(=O)N/N=C\C=C\c1ccc2c(c1)OCO2 2.82 µM [activator, partial curve]
Cc1ccc(Cn2ccc(NC(=O)c3noc4c3CCCC4)n2)cc1 3.55 µM [activator, partial curve]
Cc1nn(C(=O)c2cc3sccc3[nH]2)c(C)c1C 5.62 µM [activator, single point]
CCOC(=O)c1cnn(-c2cc(C)c3ccccc3n2)c1N 2 µM [activator, partial curve]
CC1=C(C(=O)Nc2ccc(CC(=O)NCc3ccc(OC(C)C)cc3)cc2)SCCO1 6.31 µM [activator, single point]
Cc1nc(NC(=O)c2ccc(Br)o2)sc1C 3.16 µM [activator, single point]
O=C(Nc1ccccn1)c1sc2cc([N+](=O)[O-])ccc2c1Cl 2.24 µM [activator, partial curve]
Cc1ccc(C2C=C(c3ccc4c(c3)OCO4)Nc3ncnn32)cc1 (centres undefined) 5.62 µM [activator, single point]
Cc1csc(NC(=O)c2cc3ccccc3o2)n1 2.82 µM [activator, partial curve]
COC(=O)C(C)Sc1ncnc2c1nnn2-c1ccc(F)cc1 (centres undefined) 3.55 µM [activator, single point]
O=C(Nc1ccccn1)c1ccc2ccccc2n1 5.62 µM [activator, single point]
Cc1cc(C)cc(NC(=O)c2nnn(Cc3cc(C)ccc3C)c2N)c1 1.26 µM [activator, single point]
COc1cccc(C(=O)O/N=C(\N)c2ccc([N+](=O)[O-])cc2)c1OC 3.55 µM [activator, single point]
Cc1cccc(NC(=O)c2cnn3ccccc23)c1C 1.58 µM [activator, partial curve]
O=C(O)c1cnn(-c2nc(-c3ccc(Br)cc3)cs2)c1C(F)(F)F 3.55 µM [activator, single point]
COc1ccc(-c2cn3cccnc3n2)cc1F 3.16 µM [activator, partial curve]
Clc1ccc(-c2nnc(-c3ccccc3)o2)cn1 3.98 µM [activator, single point]
CC(Cc1cccs1)NC(=O)Nc1ccc(Cl)c(Cl)c1 (centres undefined) 5.62 µM [activator, single point]
COc1ccc(-n2sc3ccc(F)cc3c2=O)cc1 5.62 µM [activator, single point]
O=C(O)c1c2c(nc3ccccc13)/C(=C/c1ccc(OC(F)F)cc1)CCC2 3.16 µM [activator, partial curve]
O=C(Nc1ccc2oc(-c3cccc4ccccc34)nc2c1)c1ncn[nH]1 2.82 µM [activator, partial curve]
CSc1nnc(NC(=O)C23CC4CC(CC(C4)C2)C3)s1 5.01 µM [activator, single point]
C/C(N)=C(/C#N)C(=O)CSc1nnc(Nc2ccccc2)s1 3.55 µM [activator, partial curve]
COc1ccc(C2CC2/C(=N/OC(=O)c2cccs2)c2ccccc2)cc1 (centres undefined) 3.55 µM [activator, partial curve]
O=C(Nc1ccc(F)cc1Cl)c1ccc2c(=O)n3c(nc2c1)CCCCC3 3.16 µM [activator, single point]
